Test results as given in publication PMC5892938.
Some of the results follow. At the low end of the ranking the order means little.

What follows are sequences tested against GST-SBP-SLBP (stem-loop binding protein) (UniProt Q14493) (assay: targeted RNA Bind-n-Seq). Settings: RBNS binding buffer: 25 mM Tris pH 7.5, 150 mM KCl, 3 mM MgCl2, 0.1% Tween, 0.5 mg/mL BSA, 1 mM DTT; 27 nM protein, 750 pM RNA pool; temperature not stated; high values mean tight binding.
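Note: DESeq read counts versus GST-SBP nonspecific binding control pulldown.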

| Sequence | binding signal (log2 fold change) |
| --- | --- |
| GGUCACGUCUCAAUCAACUCCAUCGAGGGGGGGAAAACCCCUUUACCCUCACUAUCAACAGCUCGCAGUCAAG | -0.00327 |
| GGUCACGUCUCAAUCAACUCUUACGAGGGGGGGAAAACCCCUUUACCCUCAAUGUCAACAGCUCGCAGUCAAG | -0.0629 |
| GGUCACGUCUCAAUCAACUCUUUUUCAGGAGUUUUCUCCUGCUAUGUCAACAGCUCGCAGUCAAG | 0.0978 |
| GGUCACGUCUCAAUCAACUCUUUUUCCAGGGAAAUCCCUGGUUUAUUCAACAGCUCGCAGUCAAG | 0.00346 |
| GGUCACGUCUCAAUCAACUCAACUUCAGGAGUUUUCUCCUGUAAUCUCAACAGCUCGCAGUCAAG | -0.00487 |
| GGUCACGUCUCAAUCAACUCCCUAGAGGGGGGGAAAACCCCUUUACCCUCAUUAUCAACAGCUCGCAGUCAAG | 0.149 |
| GGUCACGUCUCAAUCAACUCAAUUCCCAGGGAAAGCCCUGGCUAACUCAACAGCUCGCAGUCAAG | 0.171 |
| GGUCACGUCUCAAUCAACUCAGUCUCAGGAGUUUUCUCCUGUUAAUUCAACAGCUCGCAGUCAAG | -0.182 |
| GGUCACGUCUCAAUCAACUCAUCCGAGGGGGGGAAAACCCCUUUACCCUCAAAAUCAACAGCUCGCAGUCAAG | -0.565 |
| GGUCACGUCUCAAUCAACUCAAGUCCAGGAGUUUACUCCUGCAAUUUCAACAGCUCGCAGUCAAG | -0.0389 |
| GGUCACGUCUCAAUCAACUCGUCUUCAGGAGUUUACUCCUGCUAUUUCAACAGCUCGCAGUCAAG | 0.0978 |
| GGUCACGUCUCAAUCAACUCUUCCUCCAGGGAAACCCCUGGCAAUGUCAACAGCUCGCAGUCAAG | -0.0302 |
| GGUCACGUCUCAAUCAACUCAACUUCCAGGGAAAGCCCUGGUUUUCUCAACAGCUCGCAGUCAAG | 0.0773 |
| GGUCACGUCUCAAUCAACUCAACUUCAGGAGUUUCCUCCUGUUUACUCAACAGCUCGCAGUCAAG | -0.11 |
| GGUCACGUCUCAAUCAACUCUUUCCCCAGGGAAAACCCUGGUAAAUUCAACAGCUCGCAGUCAAG | -0.0354 |
| GGUCACGUCUCAAUCAACUCUUCUUCCAGGGAAACCCCUGGCUAUUUCAACAGCUCGCAGUCAAG | -0.0156 |
| GGUCACGUCUCAAUCAACUCAUCCCCAGGAGUUUACUCCUGUAAAGUCAACAGCUCGCAGUCAAG | 0.128 |
| GGUCACGUCUCAAUCAACUCUUCCCCAGGAGUUUUCUCCUGUAAUCUCAACAGCUCGCAGUCAAG | 0.0884 |
| GGUCACGUCUCAAUCAACUCUAUCUCCAGGGAAACCCCUGGCUUACUCAACAGCUCGCAGUCAAG | -0.0131 |
| GGUCACGUCUCAAUCAACUCUUCCUCCAGGGAAAUCCCUGGCUUUUUCAACAGCUCGCAGUCAAG | -0.188 |
| GGUCACGUCUCAAUCAACUCUUUCUCCAGGGAAACCCCUGGUUAACUCAACAGCUCGCAGUCAAG | 0.223 |
| GGUCACGUCUCAAUCAACUCUCUAGAGGGGGGGAAAACCCCUUUGCCCUCAAUUUCAACAGCUCGCAGUCAAG | -0.198 |
| GGUCACGUCUCAAUCAACUCACAAGAGGGGGGGAAAACCCCUUUACCCUCCCAAUCAACAGCUCGCAGUCAAG | 0.187 |
| GGUCACGUCUCAAUCAACUCUUCCGCAGGAGUUUUCUCCUGGUAUUUCAACAGCUCGCAGUCAAG | 0.0226 |
| GGUCACGUCUCAAUCAACUCAUCUCCAGGAGUUUUCUCCUGCUAACUCAACAGCUCGCAGUCAAG | -0.0801 |

| Sequence | binding signal (log2 fold change) |
| --- | --- |
| GGUCACGUCUCAAUCAACUCAUUCUCAGGAGUUUCCUCCUGCAAUCUCAACAGCUCGCAGUCAAG | 0.00191 |
| GGUCACGUCUCAAUCAACUCAGUUUCAGGAGUUUCCUCCUGUAUAUUCAACAGCUCGCAGUCAAG | 0.105 |
| GGUCACGUCUCAAUCAACUCAUUUCCCAGGGAAAGCCCUGGCAUAUUCAACAGCUCGCAGUCAAG | 0.154 |
| GGUCACGUCUCAAUCAACUCUACUUCCAGGGAAAGCCCUGGCAAUUUCAACAGCUCGCAGUCAAG | 0.164 |
| GGUCACGUCUCAAUCAACUCAUCCCCAGGAGUUUACUCCUGUUUAUUCAACAGCUCGCAGUCAAG | 0.16 |
| GGUCACGUCUCAAUCAACUCUACUCCCAGGGAAAGCCCUGGCUUAUUCAACAGCUCGCAGUCAAG | 0.0337 |
| GGUCACGUCUCAAUCAACUCAUCUUCCAGGGAAAUCCCUGGUAUACUCAACAGCUCGCAGUCAAG | 0.0231 |
| GGUCACGUCUCAAUCAACUCAUCUUCAGGAGUUUGCUCCUGUUAAUUCAACAGCUCGCAGUCAAG | -0.0375 |
| GGUCACGUCUCAAUCAACUCAACUCCAGGAGUUUUCUCCUGUAAUCUCAACAGCUCGCAGUCAAG | -0.121 |
| GGUCACGUCUCAAUCAACUCUUUCUCCAGGGAAACCCCUGGUUAAUUCAACAGCUCGCAGUCAAG | -0.1 |
| GGUCACGUCUCAAUCAACUCCUUCGAGGGGGGGAAAACCCCUUUACCCUCAUAUUCAACAGCUCGCAGUCAAG | -0.137 |
| GGUCACGUCUCAAUCAACUCAUUCCCAGGAGUUUUCUCCUGUAAAUUCAACAGCUCGCAGUCAAG | 0.0352 |
| GGUCACGUCUCAAUCAACUCCAAAGAGGGGGGGAAAACCCCUUUGCCCUCAAUUUCAACAGCUCGCAGUCAAG | -0.00323 |
| GGUCACGUCUCAAUCAACUCAUUUUCCAGGGAAAGCCCUGGCAUAUUCAACAGCUCGCAGUCAAG | -0.107 |
| GGUCACGUCUCAAUCAACUCAUUCUCAGGAGUUUACUCCUGCUUUUUCAACAGCUCGCAGUCAAG | -0.0164 |
| GGUCACGUCUCAAUCAACUCUAACGAGGGGGGGAAAACCCCUUUGCCCUCAACAUCAACAGCUCGCAGUCAAG | -0.294 |
| GGUCACGUCUCAAUCAACUCAUCCUCAGGAGUUUACUCCUGUUAAUUCAACAGCUCGCAGUCAAG | -0.0609 |
| GGUCACGUCUCAAUCAACUCAUUUUCAGGAGUUUACUCCUGUAAUUUCAACAGCUCGCAGUCAAG | -0.155 |
| GGUCACGUCUCAAUCAACUCAAUCUCCAGGGAAAUCCCUGGUUAAUUCAACAGCUCGCAGUCAAG | 0.348 |
| GGUCACGUCUCAAUCAACUCAAUCCCCAGGGAAAACCCUGGCAUAUUCAACAGCUCGCAGUCAAG | 0.106 |
| GGUCACGUCUCAAUCAACUCUUUCCCAGGAGUUUUCUCCUGUUUUCUCAACAGCUCGCAGUCAAG | -0.0388 |
| GGUCACGUCUCAAUCAACUCAAUCCCCAGGGAAACCCCUGGUAAACUCAACAGCUCGCAGUCAAG | -0.162 |
| GGUCACGUCUCAAUCAACUCAUCAGAGGGGGGGAAAACCCCUUUACCCUCAACCUCAACAGCUCGCAGUCAAG | -0.287 |
| GGUCACGUCUCAAUCAACUCUAUCCCCAGGGAAAACCCUGGUAAACUCAACAGCUCGCAGUCAAG | 0.0123 |
| GGUCACGUCUCAAUCAACUCUAUUUCCAGGGAAAUCCCUGGCAUACUCAACAGCUCGCAGUCAAG | -0.064 |

| Sequence | binding signal (log2 fold change) |
| --- | --- |
| GGUCACGUCUCAAUCAACUCAUACGAGGGGGGGAAAACCCCUUUACCCUCAAAUUCAACAGCUCGCAGUCAAG | 0.598 |
| GGUCACGUCUCAAUCAACUCUAUCUCCAGGGAAAACCCUGGUUAACUCAACAGCUCGCAGUCAAG | 0.251 |
| GGUCACGUCUCAAUCAACUCUUCCCCAGGAGUUUCCUCCUGUAAUGUCAACAGCUCGCAGUCAAG | -0.0497 |
| GGUCACGUCUCAAUCAACUCUUUCCCCAGGGAAAUCCCUGGUAAACUCAACAGCUCGCAGUCAAG | 0.16 |
| GGUCACGUCUCAAUCAACUCAUCUUCAGGAGUUUACUCCUGCAUUCUCAACAGCUCGCAGUCAAG | 0.175 |
| GGUCACGUCUCAAUCAACUCAGUUCCAGGAGUUUUCUCCUGCUUUCUCAACAGCUCGCAGUCAAG | -0.0446 |
| GGUCACGUCUCAAUCAACUCAUUCCCCAGGGAAAACCCUGGCAAACUCAACAGCUCGCAGUCAAG | 0.0758 |
| GGUCACGUCUCAAUCAACUCCAACGAGGGGGGGAAAACCCCUUUACCCUCCAAUUCAACAGCUCGCAGUCAAG | -0.07 |
| GGUCACGUCUCAAUCAACUCUUCCCCAGGAGUUUACUCCUGUAUACUCAACAGCUCGCAGUCAAG | 0.114 |
| GGUCACGUCUCAAUCAACUCAAAAGAGGGGGGGAAAACCCCUUUACCCUCCAUUUCAACAGCUCGCAGUCAAG | 0.0289 |
| GGUCACGUCUCAAUCAACUCUAUCGCAGGAGUUUACUCCUGGUUUUUCAACAGCUCGCAGUCAAG | -0.00203 |
| GGUCACGUCUCAAUCAACUCAGUCUCCAGGGAAAGCCCUGGCUUAUUCAACAGCUCGCAGUCAAG | -0.0508 |
| GGUCACGUCUCAAUCAACUCUACGGCAGGAGUUUUCUCCUGGAUAUUCAACAGCUCGCAGUCAAG | 0.0793 |
| GGUCACGUCUCAAUCAACUCAACAGAGGGGGGGAAAACCCCUUUACCCUCAUACUCAACAGCUCGCAGUCAAG | -0.18 |
| GGUCACGUCUCAAUCAACUCUCCAGAGGGGGGGAAAACCCCUUUACCCUCAUUCUCAACAGCUCGCAGUCAAG | -0.0688 |
| GGUCACGUCUCAAUCAACUCUUCCUCCAGGGAAAUCCCUGGUAAACUCAACAGCUCGCAGUCAAG | -0.188 |
| GGUCACGUCUCAAUCAACUCAUUUCCAGGAGUUUACUCCUGUAUACUCAACAGCUCGCAGUCAAG | 0.00949 |
| GGUCACGUCUCAAUCAACUCUAUUCCAGGAGUUUCCUCCUGCUAUCUCAACAGCUCGCAGUCAAG | 0.246 |
| GGUCACGUCUCAAUCAACUCAAAAGAGGGGGGGAAAACCCCUUUACCCUCACACUCAACAGCUCGCAGUCAAG | -0.038 |
| GGUCACGUCUCAAUCAACUCUUCCUCAGGAGUUUCCUCCUGUAAUGUCAACAGCUCGCAGUCAAG | 0.16 |
| GGUCACGUCUCAAUCAACUCUCCAGAGGGGGGGAAAACCCCUUUGCCCUCCAAUUCAACAGCUCGCAGUCAAG | -0.433 |
| GGUCACGUCUCAAUCAACUCAACUCCAGGAGUUUCCUCCUGUAAUUUCAACAGCUCGCAGUCAAG | -0.306 |
| GGUCACGUCUCAAUCAACUCUUUCUCAGGAGUUUACUCCUGUUAACUCAACAGCUCGCAGUCAAG | -0.0782 |
| GGUCACGUCUCAAUCAACUCUACUUCAGGAGUUUUCUCCUGUUAAUUCAACAGCUCGCAGUCAAG | -0.00184 |
